Measured values taken from publication PMC8770593 (Nature Communications, 2022).
Numbering of substitutions follows the chain as printed.

What was measured:
Assay in all cases: HTRF ligand-binding assay on whole transfected HEK293T/17 cells (QAPB saturation; competition with QAPB tracer)
[1] = molecular target: T1, α1BAR-α2C(YLLY;ECL2) chimera (Homo sapiens, UniProt P35368, A122L/DEL188-193/E186Y/E194Q/E199D/F202W/G179P/I178F/INS181VSLYRQP/K185A/L182D/L314Y/P201T/T198N/V197L/W121Y/W184A); details: saturation binding of QAPB
T1 sequence (P35368 with tags, fused parts or gaps W121Y/A122L/I178F/G179P/INS181VSLYRQP/L182D/W184A/K185A/E186Y/DEL188-193/E194Q/V197L/T198N/E199D/P201T/F202W/L314Y): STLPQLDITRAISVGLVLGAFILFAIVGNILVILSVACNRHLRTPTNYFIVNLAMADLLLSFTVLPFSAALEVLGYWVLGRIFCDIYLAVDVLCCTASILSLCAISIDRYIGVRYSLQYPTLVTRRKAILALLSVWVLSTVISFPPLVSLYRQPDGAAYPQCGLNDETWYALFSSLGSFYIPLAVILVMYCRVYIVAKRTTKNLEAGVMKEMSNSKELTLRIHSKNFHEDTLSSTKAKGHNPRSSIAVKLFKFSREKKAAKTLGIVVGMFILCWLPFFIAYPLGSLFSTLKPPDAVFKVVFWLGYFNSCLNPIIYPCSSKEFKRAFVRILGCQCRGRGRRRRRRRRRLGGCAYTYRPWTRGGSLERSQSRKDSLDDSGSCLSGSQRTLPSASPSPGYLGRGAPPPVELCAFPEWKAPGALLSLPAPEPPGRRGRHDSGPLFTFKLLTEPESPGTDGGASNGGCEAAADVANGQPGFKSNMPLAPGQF

[2] = molecular target: T2, α1BAR-α2C(L^45.52) chimera (V197^45.52→L) (Homo sapiens, UniProt P35368, V197L); details: V197^45.52→L vs wild-type α1BAR
T2 sequence (P35368 35-520 V197L): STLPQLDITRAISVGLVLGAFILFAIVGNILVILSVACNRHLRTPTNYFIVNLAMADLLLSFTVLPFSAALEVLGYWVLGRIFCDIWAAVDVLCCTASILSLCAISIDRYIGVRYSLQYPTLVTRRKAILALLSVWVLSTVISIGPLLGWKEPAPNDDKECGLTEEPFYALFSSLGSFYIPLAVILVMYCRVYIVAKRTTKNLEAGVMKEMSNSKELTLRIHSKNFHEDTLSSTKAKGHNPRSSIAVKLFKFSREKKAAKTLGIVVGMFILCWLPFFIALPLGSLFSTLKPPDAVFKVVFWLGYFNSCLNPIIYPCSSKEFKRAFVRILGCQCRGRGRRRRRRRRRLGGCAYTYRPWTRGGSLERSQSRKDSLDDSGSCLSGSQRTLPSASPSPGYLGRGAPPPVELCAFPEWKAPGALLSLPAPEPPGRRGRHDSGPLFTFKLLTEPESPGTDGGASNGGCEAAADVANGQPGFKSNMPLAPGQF

wild-type α1BAR = molecular target: T3, wild-type α1BAR (Homo sapiens, UniProt P35368); details: ratio of affinities α1BAR vs α2CAR
T3 sequence (P35368 35-520 limits assumed): T2 sequence (P35368 35-520 V197L) with L163V

α1BAR-α2C(YLLY) chimera = molecular target: T4, α1BAR-α2C(YLLY) chimera (Homo sapiens, UniProt P35368, A122L/L314Y/V197L/W121Y); details: α1BAR-α2C(YLLY) vs wild-type α1BAR
T4 sequence (P35368 35-520 W121Y/A122L/V197L/L314Y): T2 sequence (P35368 35-520 V197L) with W87Y, A88L, L280Y

[3] = molecular target: T5, α1BAR-α2C(YLLY;N^2.64) chimera (Homo sapiens, UniProt P35368, A122L/L105N/L314Y/V197L/W121Y); details: saturation binding of QAPB
T5 sequence (P35368 35-520 L105N/W121Y/A122L/V197L/L314Y): T2 sequence (P35368 35-520 V197L) with L71N, W87Y, A88L, L280Y

## COc1cc2nc(N3CCN(C(=O)CCC4=[N+]5C(=Cc6c(C)cc(C)n6[B-]5(F)F)C=C4)CC3)nc(N)c2cc1OC [QAPB]
[1]
  pKD (saturation binding): 6.16 ± 0.150
[2]
  effect of the substitution on affinity: negligible
wild-type α1BAR
  higher affinity for wild-type α1BAR compared to α2CAR: ~ 20 fold
α1BAR-α2C(YLLY) chimera
  weaker affinity compared to wild-type α1BAR: ~ 100 fold
[3]
  pKD (saturation binding): 6.06 ± 0.088
